Assay results published in the supplement of paper PMC11417369.
The list shows a part of the results.

System: PfSIP2 AP2 domain 1 (GST-tagged)
Assay: gcPBM binding intensity (ln(normalized median fluorescence intensity)); higher = stronger DNA binding
Outline: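 In this array assay, P. falciparum DNA-binding domains with a GST tag, expressed in E. coli, were applied for 1 h to primer-extended double-stranded 36-bp intergenic genomic probes and negative controls on an Agilent 4 × 180k array. Bound protein was visualised with Alexa488 anti-GST antibody at 488 nm. Binding intensity is the highest Masliner-normalised natural-log median intensity across replicate spots of either probe orientation.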

Sequence	gcPBM binding intensity (ln)
ATATATTTTTAATTACGTACTTAATAATATATACAA [XGTACX_site3285]	7.17
TAAAAGAAAAATTAGTGTACCAATATTAACATAAAA [XGTACX_site5474]	6.75
ATTAAAAGAACCAAGTGTACATTCTATATATAAAAA [XGTACX_site4260]	6.97
TATACAATATATTTTGGTACACAAACAAAAAAATAT [XGTACX_site2522]	7.2
GAAAAAGACAAAAGGTGTACAATATGAAATATATAT [XGTACX_site373]	7.37
GTTCACCAAAGGTAACGTACACAAACATATATATAT [XGTACX_site1073]	8.91
ATATTATGATCTATTTTTATATTCTATTTGATAAAT [CACACA_negctrl_site1070]	6.97
TAATTCTAAATAAATGTACACACAAAAATAAATGTA [CACACA_site8509]	7.02
TATATATATATTATATGTACATAAATATTTATACTC [XGTACX_site114]	8.59
TTATAAAATTTTCTTCTATATTTTAATTATTCTCAT [TGCATGCA_negctrl_site571]	6.79
TTGATAAAATGGGAGAAATTAAAAAGGAAAAAAAAA [CACACA_negctrl_site1279]	6.73
CTATTTTATATGTGCACACATATACACCCACAAATA [CACACA_site1131]	9.31
TTAAATATAATTATATGTACATATTTATGTATATAT [XGTACX_site5811]	7.01
AGATTGTATTTATGTACACACATTTTTGGAATATGA [CACACA_site1340]	7.2
TTGATTAAAATTAGTACACACAAAATACATGCGGGG [CACACA_site5284]	7.5
AATTTACAAAAAAGAAAAAAAAAAAAAAAGATACTT [CACACA_negctrl_site1434]	6.7
ATATGCACTCATTGTGCACACGCATATTACGAAAAG [CACACA_site2637]	11
ATATTATAATGTTTTTACGAATTCGCAAATTATTAT [GTGCAC_negctrl_site470]	6.91
TTTTTTTTTTTTTTTTTTTTTTTTTTATGATATATA [GTGCAC_negctrl_site365]	6.82

Sequence	gcPBM binding intensity (ln)
TTAATTATCCATTTTGCACACATTTTAAAACATGAA [CACACA_site189]	7.56
TATATATTAAAATAATCACACACATCAATTAATGGT [CACACA_site8331]	7.01
TAATTTATTACCATGTAATTATTACGAATATAGGAT [CACACA_negctrl_site694]	7.01
AAAAAATTATTAATTTGTACATAAATAACCAAAAAA [XGTACX_site2488]	6.94
GAAATATAATTTATTACACACATTTTAAAAAAATTC [CACACA_site1087]	6.67
TTCAACGTTTTGGAATGTACAGAAAGGTATCCATCA [XGTACX_site179]	6.97
AAAAAAAAAAAAAAAAAAAAAAAAAAAAAATATGTG [GTGCAC_negctrl_site657]	8.81
TTTATAACATTTAAGAGTACAAAAAAATAAATAAAT [XGTACX_site1264]	7.07
TAAAAGATAAAATATGCATGTGTAATTTTTTTTTTT [TGCATGCA_site955]	6.79
TATTATTTACTTATTGCACACATATAAAATATATTT [CACACA_site9017]	7.33
AAAAAAATATATAAATGTACATATTGTTTAATTAAT [XGTACX_site3794]	7.1
ATGAACTAAACTAATCGTACAATAAGTTTTATTATA [XGTACX_site4891]	6.84
ATCTATCATATTTATGCACACAAAAATAATTAATTC [CACACA_site8837]	7.35
TCACACACTCTCAAAAGTACAAGAAGATTATGAAGA [XGTACX_site4748]	7
AGCAAAACAAAAAAATTAAAATTAACATATAATCAT [GTGCAC_negctrl_site393]	6.7
TTTTGAAGCTTTAAAACATATATATATATATATATA [CACACA_negctrl_site184]	9.76
AATAAGAGGATACATTGTACATAAAAAAAAAAAATA [XGTACX_site1815]	6.71
ATGTTCTTATTATTGGTGCAAGAATACACAAGAAAA	9.71
TATTGTTCTTATTTAGTGCATATATAATATAATATA [GTGCAC_site9827]	9.38

Sequence	gcPBM binding intensity (ln)
AACACATAATAAAATTGTACCCAACATTTCTTTTGA [XGTACX_site8061]	6.96
TATGTGAATAAATAAGCACACATAAACACATATATA [CACACA_site9359]	7.04
ATAAAAATTTAAAAAGAACACACGAAAGAAGGACTT [CACACA_site3929]	7.04
TATATAAACACGTACACACACATATCTGTATTTATA [CACACA_site5858]	7.39
AATACCTACCAAACATGTACATACGCTTCTCAAATA [XGTACX_site5535]	7.21
GTGAGCTCAGACTACACACACAAAGAAAAAAATAAA [CACACA_site1553]	6.76
ATATTTTTAGGTGATTATTATTCGGAGAAGCGAATT [CACACA_negctrl_site1097]	6.68
AACAAATACAGACACACACACACACCCAAAAAAAAA [CACACA_site515]	7.29
ATACAACAAAAATAAGCACACACAAATATACATACA [CACACA_site9201]	7.15
ATTAAATGTTATATTTGTACATATTATATATATATA [XGTACX_site5095]	9.05
TCCATATTTGTTCACACACACACATATTTATATATA [CACACA_site3570]	7.31
TTTGTTATTTTTTATTGTACTTTTTTTCTTTCATAA [XGTACX_site4302]	7.11
TTCATTTTTTATTATAGTACACATAATATTTGCAGA [XGTACX_site4032]	7.33
TTTTTTAAATGTATTAAAATTATATATATATATATA [GTGCAC_negctrl_site570]	9.44
ATACATAAATTTAGAAGTACATAACAAATTTTTAAA [XGTACX_site7448]	7.1
AATCAAAACAACAATAGTACATAAAAAAACAAAACA [XGTACX_site4181]	6.99
TATAATAATAATTATACATGCATGAATATTTATATG [TGCATGCA_site811]	7.01
AAAAAAAAAAAAAACACACACACAAATACAAATGGT [CACACA_site1721]	7.3
